Test results as given in PubChem BioAssay AID1347417 (National Center for Advancing Translational Sciences (NCATS), 2020).
The campaign covered roughly 120,000 compounds. About 5,300 (4.4%) were called active. The shares of active, inactive and inconclusive entries below differ from those in the screen. Calls follow the shape of the dose curve; as a rule, active = well fitted inhibition curve with a large enough effect; inconclusive = small, poorly fitted or top-dose-only effect; inactive = no such curve, though single readings can be large or run the other way. Where the call is inconclusive, the potency comes from a doubtful curve fit.
Potency is read from the fitted curve at half-maximal effect; tags tell the direction and shape of the fitted curve.

Assay: qHTS Primary assay for Inhibitors of Plasmodium falciparum Dd2 growth in vitro; also: nearly all actives have a fitted effect of over 65% in size;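 as to activity, negative = inhibition: plate controls were DMSO vehicle for no effect and reference drug for full effect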
Conditions: P. falciparum Dd2 growth, SYBR Green, 72 h; activity, negative = inhibition: at 28.9 µM (top of the series) unless noted; series mostly up to 28.9 µM
Procedure, shortened: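 Infected erythrocytes (Dd2, 0.3% parasitemia, 2.5% hematocrit final) are added to compound in RPMI-1640/Albumax II medium, grown 72 h at 37C in low oxygen, then lysed with saponin/Triton-X containing SYBR Green and read by fluorescence.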
In the case of `CCN(CC)Cc1ccc2c(c1)CN(C(=O)c1cccc(F)c1)CCO2`, the Potency is reported as active: 6.31 µM. With `CCOc1ccccc1CNCCCSc1nnnn1C` the Potency was inconclusive: 5.01 µM [inhibitor, partial curve]. For `Cc1ccc(CSc2cn(CC(=O)N3CCCCCC3)c3ccccc23)cc1`, the Potency was inconclusive: 17.8 µM [inhibitor, single point]. In the case of `CCc1ccc(C(=O)NCc2nnc3cc(-c4nc(C)no4)ccn23)cc1`, the “outcome” value is reported as “inactive”. For `Cc1ccc2oc(C(=O)Nc3sc4c(c3C(=O)NCC3CCCO3)CCC4)cc(=O)c2c1` (stereo not drawn), the Potency was inconclusive: 0.112 µM [inhibitor, partial curve, poor fit]. For `CCN(CC)c1ccc(NC(=O)CN2CCN(CC(=O)Nc3ccc(Cl)cc3)CC2)cc1`, the Potency was active: 8.91 µM. For `CS(=O)(=O)N(Cc1cccnc1)C1CN(C(=O)c2ccc3cc[nH]c3c2)C1`, the “activity, negative = inhibition” value was inactive: 4.59%. With `CC(C)Cn1cc(NC(=O)NCc2cccc(Cl)c2)c2ccccc2c1=O` the Potency was inconclusive: 14.1 µM [inhibitor, single point]. For `O=C(NCCC1=CCCCC1)c1ccc2c(c1)sc1nc(-c3ccc(F)cc3)cn12`, the Potency was inconclusive: 17.8 µM [inhibitor, single point]. With `O=C(NCCc1ccccc1)c1ccc2c(c1)N(Cc1ccc(F)cc1)C(=O)CS2` the Potency was inconclusive: 8.91 µM [inhibitor, single point]. For `Cc1cccc(-n2cc(CN3CCCC(C)(O)C3)c(-c3cccc(F)c3)n2)c1` (stereo not drawn), the Potency was active: 8.91 µM. With `Cc1cccc(NC(=O)CN2C(=O)C3(SCC(=O)N3c3ccccc3)c3ccccc32)c1` (stereo not drawn) the Potency was inconclusive: 17.8 µM [inhibitor, single point]. With `Cc1ccc(Cn2c(C(=O)O)c(CNCc3ccc(C)o3)c3ccc(C)cc32)cc1` the Potency was inconclusive: 15.8 µM [inhibitor, single point]. In the case of `O=C(NCC1CC1)c1cccc(OC2CN(C3CCN(Cc4ccccc4)CC3)C2)c1`, the Potency is reported as inconclusive: 1 µM [inhibitor, partial curve, poor fit]. In the case of `COc1ccc(Cl)cc1NC(=O)CSC1=Nc2ccccc2C2=NC(CCC(=O)NCc3ccco3)C(=O)N12` (stereo not drawn), the Potency is reported as inconclusive: 11.2 µM [inhibitor, single point]. With `Cc1ccc(Cn2c(CCNC(=O)c3cccc(C)c3)nc3ccccc32)cc1` the Potency was inconclusive: 10 µM [inhibitor, single point]. In the case of `CN(Cc1cccnc1)c1nc2c(c(=O)[nH]1)CCN(Cc1cccc(F)c1)CC2`, the activity, negative = inhibition is reported as inactive: -5.34% [at 5.79 µM]. With `CSc1ccc(NC(=O)c2cc3c(s2)CN(C2CC2)C3)cc1` the Potency was active: 10 µM. With `Cc1cccc(-c2noc(-c3cc(C(C)C)[nH]n3)n2)c1` the Potency was inconclusive: 11.2 µM [inhibitor, single point]. With `COc1cccc(CN2CC[C@H]3COC(=O)N3c3cc(C)ccc3C2)c1` the “activity, negative = inhibition” value was inactive: 0.972% [at 44.1 µM]. In the case of `COCCN(C)C[C@H]1C[C@H](CO)CN(C(=O)c2cc3ccccc3s2)C1`, the Potency is reported as inconclusive: 12.6 µM [inhibitor, partial curve, poor fit]. For `CC(C)(C)C1CCC2(CC1)NC(=O)N(CC(=O)NCc1ccccc1)C2=O` (stereo not drawn), the Potency was inconclusive: 10 µM [inhibitor, single point]. For `Cc1ccc(CCNS(=O)(=O)c2ccc3c(c2)C(C(C)C)C(=O)N3)cc1` (stereo not drawn), the Potency was inconclusive: 10 µM [inhibitor, single point]. With `Cc1cccc(NC(=O)c2ccc3c(c2)N(C)C2CCCCN2C3=O)c1` (stereo not drawn) the Potency was inconclusive: 3.98 µM [inhibitor, partial curve, poor fit]. With `Cc1ccc(C)c(C(=O)N2CCN(C(=O)c3nnn4c3COC(c3ccccc3)C4)CC2)c1` (stereo not drawn) the Potency was inconclusive: 3.16 µM [inhibitor, single point]. For `CC(NC(=O)c1cc2c(=O)n3ccccc3nc2n(C(C)C)c1=N)c1ccccc1` (stereo not drawn), the Potency was inconclusive: 17.8 µM [inhibitor, single point]. With `COCCOC1CCN(S(=O)(=O)c2c(C)noc2C)CC1` the “activity, negative = inhibition” value was inactive: 41%. In the case of `CC(C)CCN1CCC(N2CCN(S(=O)(=O)c3cccc(C(F)(F)F)c3)CC2)C1=O` (stereo not drawn), the Potency is reported as inconclusive: 5.01 µM [inhibitor, partial curve]. With `OC1(CNCc2cc(C(F)(F)F)ccc2F)CNCCOC1` (stereo not drawn) the Potency was inconclusive: 8.91 µM [inhibitor, partial curve, poor fit]. With `COc1cc(OC)c(C2CC(=O)Nc3ccc4ccccc4c32)cc1OC` (stereo not drawn) the Potency was inconclusive: 17.8 µM [inhibitor, single point]. With `Cc1nc(C)n(CCCNC(=O)C2CCN(C(=O)C3CCC3)CC2)n1` the “activity, negative = inhibition” value was inactive: -4.34%. With `Cc1noc(C)c1CCNC(=O)CCc1ccc2c(c1)CN(S(C)(=O)=O)CCO2` the “activity, negative = inhibition” value was inactive: 2.91%. For `Cc1c(-c2ccc(Cl)cc2)n[nH]c1C(=O)N[C@@H]1CCNC[C@H]1O`, the “activity, negative = inhibition” value was inactive: 9.93%. In the case of `COc1cccc(N2C(=O)NC(=NC3CCCCC3)C23CCN(C(=O)c2ccccc2OC)C3)c1` (stereo not drawn), the activity, negative = inhibition is reported as inconclusive: -48.7% [inhibitor]. For `C[S+](=O)([O-])N1Cc2ccccc2CC2(CCCN2CC2CCOCC2)C1` (stereo not drawn), the Potency was inconclusive: 20 µM [inhibitor, partial curve, poor fit]. In the case of `COCc1nncn1C1CCN(S(=O)(=O)c2ccc(Br)cc2)CC1`, the “activity, negative = inhibition” value is reported as inactive: -17.1%. In the case of `O=[S+]1([O-])NC2(CCN(Cc3ccncc3)C2)COc2ccncc21` (stereo not drawn), the Potency is reported as inconclusive: 1 µM [inhibitor, partial curve, poor fit]. In the case of `COc1cccc(Nc2cnc3ccc(-c4ccc(F)cc4)nn23)c1`, the Potency is reported as inconclusive: 7.94 µM [inhibitor, partial curve, poor fit]. In the case of `Cc1noc(C)c1S(=O)(=O)N(CC(=O)Nc1ccc(F)cc1F)c1ccc(C(C)C)cc1`, the Potency is reported as inconclusive: 17.8 µM [inhibitor, single point]. For `Cn1ncc(N2CCC(CNC(=O)C3(c4ccccc4)CCCC3)C2)cc1=O` (stereo not drawn), the “activity, negative = inhibition” value was inactive: -11.9%. With `COc1ccc(Cn2ccc3nc(C)c(C(=O)Nc4cccc(SC)c4)cc3c2=O)cc1` the Potency was inconclusive: 17.8 µM [inhibitor, single point]. In the case of `Oc1c(C(Nc2ccccn2)c2ccccc2F)ccc2cccnc12` (stereo not drawn), the Potency is reported as active: 1.12 µM. In the case of `COc1ccc(C(=O)NCc2nnc3ccc(-c4ccc(Cl)cc4)nn23)cc1OC`, the “outcome” value is reported as “inactive”. In the case of `COc1ccc(CN2C=C(C(=O)OCc3noc(-c4ccccc4F)n3)C(C)=NS2(=O)=O)cc1`, the “activity, negative = inhibition” value is reported as inactive: -18.1%. In the case of `CCN1CCN(c2oc(-c3ccc(COc4ccccc4C)o3)nc2C#N)CC1`, the “activity, negative = inhibition” value is reported as inactive: -13.9%. In the case of `CN1CCN(C(=O)Cc2c[nH]c3ncc(-c4ccc(F)c(Cl)c4)cc23)CC1`, the Potency is reported as active: 11.2 µM. In the case of `O=C1[C@H]2CN(Cc3c[nH]c4ccccc34)C[C@H]2C(=O)N1CCc1ccccc1`, the “activity, negative = inhibition” value is reported as inactive: -1.08%. For `Cc1cccc(NC(=O)Nc2ccc(C)n(CC(=O)O)c2=O)c1`, the “activity, negative = inhibition” value was inactive: 1.42%. For `CC(=O)N1CCCC(c2nc(-c3cccnc3)no2)CCNC(=O)CC1` (stereo not drawn), the “activity, negative = inhibition” value was inactive: 18.6%. For `Cc1cc(C)cc(NC(=O)Cn2c(N3CCc4ccccc4C3)nc(C)cc2=O)c1`, the “activity, negative = inhibition” value was inactive: -9.44%. With `CCCCCC(=O)N[C@H]1C[C@@H](Cc2cc(COc3ccccc3)on2)C1(C)C` the Potency was active: 11.2 µM. For `CCNC(=O)N1CCCCCC1CN1CCCC1` (stereo not drawn), the “activity, negative = inhibition” value was inactive: -27%. With `CC(C)S(=O)(=O)N1CC(Oc2ccc(-c3noc(-c4cccnc4)n3)cc2)C1` the Potency was inconclusive: 0.316 µM [inhibitor, partial curve, poor fit]. For `CCn1cc2nc(SCc3ccccc3Cl)n(Cc3ccc(OC)cc3)c(=O)c2n1`, the Potency was inconclusive: 17.8 µM [inhibitor, single point]. In the case of `COCc1ncc(C)n1CC1CCN(C(=O)C2(c3ccc(OC)cc3)CC2)CC1`, the Potency is reported as inconclusive: 17.8 µM [inhibitor, single point]. With `Clc1ccc(-c2nnc3n2CCN(Cc2ccccc2)C3)cc1` the activity, negative = inhibition was inconclusive: -131% [inhibitor]. In the case of `CCOc1ccccc1CN1CCN(c2ccc(C#N)cn2)CC1CCO` (stereo not drawn), the Potency is reported as inconclusive: 10 µM [inhibitor, partial curve, poor fit]. In the case of `CC(C)c1noc([C@@H]2Cc3nc[nH]c3CN2Cc2ccc(F)cc2)n1`, the Potency is reported as inconclusive: 7.08 µM [inhibitor, full curve, poor fit]. For `CN(C)c1ccc(Nc2ncnc3c2c(-c2ccccc2)cn3-c2cccc(Cl)c2)cc1`, the Potency was inconclusive: 12.6 µM [inhibitor, single point]. With `CCn1cc(/C=C(\NC(=O)c2cc(OC)c(OC)c(OC)c2)C(=O)NCCCn2ccnc2)c2ccccc21` the Potency was inconclusive: 12.6 µM [inhibitor, single point]. In the case of `CCOC(=O)C1CCN(C(=O)c2cc3c(n2C)CCN(Cc2ccccc2)C3)CC1`, the Potency is reported as active: 1.58 µM. For `CC[C@@]1(C(=O)O)C[C@H](C(=O)N(C)CCO)[C@H](c2ccc(F)cc2)N1C`, the “activity, negative = inhibition” value was inactive: 1.84%. In the case of `Cc1noc(C)c1-c1cc2c(cc(-c3ccccc3)n2C)c(-c2cccnc2)n1`, the Potency is reported as inconclusive: 1.41 µM [inhibitor, full curve]. With `N#Cc1c(-c2ccccc2)cc(-c2ccccc2)nc1SCC(O)CS(=O)(=O)Cc1ccc(Cl)cc1` (stereo not drawn) the Potency was inconclusive: 17.8 µM [inhibitor, single point]. With `N#Cc1ccc(C(=O)N2CCC3(CC2)NC(=O)N(Cc2ccc(F)cc2)C3=O)cc1` the Potency was inconclusive: 10 µM [inhibitor, partial curve, poor fit]. In the case of `CCN1CCC(N2C[C@@H](COC)[C@H](c3nc(C)no3)C2)CC1`, the “activity, negative = inhibition” value is reported as inactive: 22%. With `CC(C)(C)OC(=O)N1CCC(c2c(C(=O)NC3CCCCC3)cnn2-c2ccc(F)cc2F)CC1` the “activity, negative = inhibition” value was inactive: -10.8%. For `CN(c1ccccc1)c1ccc2nnc(-c3ccccn3)n2n1`, the Potency was inconclusive: 25.1 µM [inhibitor, single point].
